Measurements published in the supplement of paper PMC4466236.
In all, about 33,000 sequences were measured (“E-score (dimensionless, -0.5 to 0.5)”: median about -0.058, highest 2% from about 0.35 on). Some of the results follow.

system: MvaT; assay: PBM 8-mer E-score (mean of HK and ME arrays) (E-score (dimensionless, -0.5 to 0.5)); higher = stronger relative binding preference; most listed sequences are background and not binding sites
Description: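 Protein binding microarray: GST-tagged full-length MvaT (P. aeruginosa PAO1) bound to two universal double-stranded 60-mer arrays (ME and HK), each with a constant 25-mer primer and a variable 35-mer region covering all 8-mers. The 8-mer E-score (rank-based, range -0.5 to 0.5, >0.45 = specific binding) is the mean of the two arrays.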

| Sequence | PBM 8-mer E-score |
| --- | --- |
| AAAGACCG | -0.0757 |
| CGCCTTGA | -0.182 |
| TCGGTCAA | -0.0832 |
| CGTCGCTA | -0.0982 |
| GCACTCCC | -0.12 |
| ATCGAGAT | 0.0901 |
| CAAATCTG | 0.0463 |
| ACATAAGT | 0.28 |
| GATTAAGC | 0.116 |
| AAACTTCA | 0.198 |
| CTCCCCGA | -0.203 |
| ACGCGACG | -0.208 |
| CACTACAA | 0.0235 |
| AAAGTTCT | 0.265 |
| ACGGCGAT | -0.0139 |
| AATTTAGC | 0.227 |
| ACACATAG | 0.0946 |
| GACTCGTA | -0.162 |
| AGAGTGTG | 0.162 |
| ACAGTTAG | 0.141 |
| CAAAGCGG | -0.128 |
| AGCGTCAT | -0.205 |
| CACTATGG | -0.00157 |
| CTTTACGC | 0.172 |
| CAATCCAG | 0.0618 |

| Sequence | PBM 8-mer E-score |
| --- | --- |
| AGCTATTA | 0.27 |
| TCTGACAA | -0.0339 |
| CCGTTCCA | -0.0556 |
| CGCAACTA | 0.197 |
| CGTTAACG | 0.156 |
| CAAGAACC | -0.125 |
| TGCCGTAA | 0.0424 |
| GAGCCTAA | -0.11 |
| GAAGGCGC | -0.239 |
| ATAATTCA | 0.325 |
| AGATCGCC | -0.119 |
| CAGAACGA | -0.151 |
| CATAGGAC | 0.0732 |
| GTTCTACA | 0.114 |
| CGGCTGCA | -0.19 |
| AGAAACCA | 0.0491 |
| GGGGAAAA | -0.0416 |
| ATCCTAGC | -0.0493 |
| ATGCCTGG | -0.224 |
| CCCATACA | -0.0841 |
| ACCTAAAC | 0.0896 |
| ATTGCAGC | 0.0188 |
| ACAGCGGG | -0.0961 |
| GCTACGTA | -0.101 |
| ACTTGCAT | 0.217 |

| Sequence | PBM 8-mer E-score |
| --- | --- |
| GTTTATAA | 0.383 |
| CGAGTCTC | -0.159 |
| CGACCTAA | 0.00602 |
| AGAAGAGG | -0.186 |
| ATAACTAC | 0.272 |
| CACCCCTC | -0.247 |
| ACCCGTGC | -0.0911 |
| CCTGCAGG | -0.313 |
| CAAGATTG | 0.00401 |
| CATAGTCA | 0.0109 |
| GAAGAAAA | 0.042 |
| GCCACCGC | -0.193 |
| ATCGGTTA | 0.0592 |
| CCCTGGCC | -0.346 |
| CTTTATTC | 0.209 |
| CCTTTATC | 0.136 |
| CTCCCAGC | -0.251 |
| ATTATTCA | 0.328 |
| TAAGGATA | 0.171 |
| CGACCCCG | -0.227 |
| CGCTTAAA | 0.181 |
| CATTTTGA | 0.174 |
| GAGGCTCA | -0.295 |
| GCATACAC | 0.0199 |
| AAATATAG | 0.332 |

| Sequence | PBM 8-mer E-score |
| --- | --- |
| AGACTACG | -0.25 |
| CGCACCCC | -0.26 |
| TTAGCCAA | 0.12 |
| TAACAGAA | 0.0818 |
| ACTGCGGC | -0.113 |
| CGTAACGA | -0.0979 |
| CGTTCGCA | 0.0402 |
| CCGGGTAG | -0.21 |
| ATCTCTCA | 0.0907 |
| GCTGGGAA | -0.00359 |
| TAAGTGTA | 0.262 |
| CACAAGCG | -0.114 |
| GCTCCTGA | -0.239 |
| AATGTTAG | 0.209 |
| ACTGGAAT | 0.118 |
| CGCAGGGC | -0.301 |
| GAGAGAAC | -0.126 |
| CGGTTGCC | -0.279 |
| CGGAATAG | 0.153 |
| TATCTTCA | 0.234 |
| CAGTGTAC | -0.0288 |
| TAACAATA | 0.394 |
| CGCGTGGC | -0.239 |
| AATTCAGG | 0.124 |
| CTCACAAA | -0.0744 |

| Sequence | PBM 8-mer E-score |
| --- | --- |
| CACAACTA | 0.211 |
| ATGGTTGA | -0.0992 |
| ACGGCCAC | -0.275 |
| GTGTGAGA | -0.0546 |
| AATCTACG | 0.0641 |
| AATCAATG | 0.144 |
| GGTGCTAA | -0.0943 |
| CTTCGGAA | -0.12 |
| GACCCCCC | -0.405 |
| ATACTTCG | 0.117 |
| AGCATTTC | -0.0862 |
| CACTTAAA | 0.0563 |
| AGGCTCAC | -0.183 |
| AGAATAAT | 0.411 |
| TCTTGGAA | -0.0259 |
| AGGCCACC | -0.167 |
| TAAAAGCA | 0.251 |
| GGACGAAA | -0.166 |
| CCAACAAC | 0.0904 |
| AAGCGCCG | -0.105 |
| GATCTTGA | 0.00283 |
| ATGTTTGG | 0.144 |
| CCTCTACA | -0.165 |
| AAAGTTGA | 0.252 |
| GCCATGCC | -0.203 |

| Sequence | PBM 8-mer E-score |
| --- | --- |
| GCATTGGA | -0.0184 |
| GAAGGGTA | -0.0926 |
| ATACTAAT | 0.33 |
| CAGATATG | 0.131 |
| ATTCTAGC | 0.117 |
| TCAAAGAA | 0.0999 |
| CATAATAC | 0.327 |
| GTGGGTTA | 0.187 |
| ATGTATAA | 0.35 |
| ATGGAAGA | -0.108 |
| CAGGTGGG | -0.15 |
| CAAGATAC | 0.141 |
| ATAAGCAT | 0.166 |
| GGAGATTA | 0.0688 |
| GAAAACAA | 0.282 |
| TGGGCCAA | -0.102 |
| AAGCGATG | -0.0951 |
| ACGGACGG | -0.112 |
| CGATAGGA | -0.177 |
| CACAGCTA | -0.0542 |
| ATGTGGGC | -0.131 |
| CATTACGC | -0.0147 |
| CCCCAGCC | -0.309 |
| CGTCGCCC | -0.188 |
| AATCCCAC | -0.0505 |

| Sequence | PBM 8-mer E-score |
| --- | --- |
| GCTCCAGA | -0.237 |
| CCTTCTTC | -0.341 |
| AATCCTCC | -0.184 |
| ACGGCTGA | -0.181 |
| AACTGTCG | -0.0139 |
| AGCGACAC | -0.101 |
| AGCCGACA | -0.108 |
| CTATCTCC | -0.0239 |
| AATCTTCG | 0.0695 |
| CGGTGATC | -0.228 |
| TGAACGCA | -0.114 |
| AAACTAAC | 0.324 |
| ATTAGTCC | 0.0581 |
| AAGACACC | -0.0676 |
| AGACAACA | 0.129 |
| TCTCTCAA | -0.0581 |
| GGAGCGTA | -0.147 |
| ACAAATAT | 0.405 |
| ACTCGTTA | 0.177 |
| AGGTTTGA | 0.0722 |
| AAGAGGAA | -0.065 |
| ACATATTA | 0.44 |
